{"source": "PubChem BioAssay AID463173", "about": "(ICCB-Longwood Screening Facility, Harvard Medical School, 2010)", "note": "The campaign covered roughly 52,000 compounds. About 1,700 (3.3%) were called active. No stated cut-off is given here; in the data, active means survival mostly below about 52% (no sharp cut-off); inactive means mostly above about 56%. The list shows a part of the results.", "data": [{"test_system": "Wild type", "experiment": "growth inhibition of S. aureus wild type versus tarO mutant, primary screen, teichoic acid synthesis inhibitors, RN4220, OD600 (AID 463173)", "conditions": "S. aureus RN4220 wild type/DeltatarO growth, OD600, 18 h, hits give low values, screened at 18.75 µg/mL (by protocol)", "values": [{"compound": "Cc1c(Cl)cccc1-n1nc(C)c2c(C)cc(=O)n(CC(=O)N3CCCc4ccccc43)c21", "survival": "inactive: 71%"}, {"compound": "Cc1ccc(CNC(=O)CCCN2C(=O)CCn3nc(-c4cccn4C)cc32)cc1", "survival": "inactive: 129%"}, {"compound": "COc1ccc(-c2nc3ccccc3n3c(-c4ccc(OC)cc4)c4c(=O)n(C)c(=O)n(C)c4c23)cc1", "survival": "inactive: 75%"}, {"compound": "CCCNC(=O)C1CCN(c2nc3ccc(C)cc3[nH]2)CC1", "survival": "inactive: 55%"}, {"compound": "CCCOc1ccc(CNC(=O)C2CCN(C(=O)c3sccc3-n3cccc3)CC2)cc1", "survival": "inactive: 71%"}, {"compound": "Cc1cc2oc3c(c(=O)c2cc1C)C(c1ccc(C(C)C)cc1)N(c1nc(C)c(C)s1)C3=O", "note": "(stereo unspecified)", "survival": "inactive: 66%"}, {"compound": "Cc1cnc(=O)[nH]c1SCC(=O)Nc1cc(C(F)(F)F)ccc1Cl", "survival": "inactive: 72%"}, {"compound": "CCOC(=O)c1ccc2c(c1)N(Cc1ccc(F)cc1Cl)C(=O)c1ccccc1S2", "survival": "inactive: 77%"}, {"compound": "Cc1cccc(C(=O)Nc2ccc(N3CCC(N4CCCCC4)CC3)c(C(=O)O)c2)c1", "survival": "inactive: 73%"}, {"compound": "CCN1CCN(c2cc(C)c3cc(NC(=O)/C=C/c4ccc(C)cc4)ccc3n2)CC1", "survival": "inactive: 71%"}, {"compound": "COc1cccc(NC(=O)N(Cc2cn(C)c3ccccc23)C2CCCCCC2)c1", "survival": "active: 0%"}, {"compound": "Cc1ccc(C)n1-c1nnc(N2CCCC(C(=O)NCc3cccc(Br)c3)C2)s1", "note": "(stereo unspecified)", "survival": "inactive: 131%"}, {"compound": "CC1CCCCN1C(=O)c1ccccc1NC(=O)c1ccco1", "note": "(stereo unspecified)", "survival": "inactive: 106%"}, {"compound": "COCCNC(=O)CSc1nc(-c2ccccc2)[nH]c1-c1ccc(C)cc1", "survival": "inactive: 85%"}, {"compound": "COc1cc(CNc2ccc3[nH]c(=O)[nH]c3c2)cc(Br)c1OCc1ccccc1F", "survival": "inactive: 90%"}, {"compound": "Cc1cccc(CN2CCN(CC(=O)Nc3c(C)cccc3C)S2(=O)=O)c1", "survival": "inactive: 134%"}, {"compound": "CC1=C(C(=O)NCc2ccc(Cl)cc2)C2(CCC(C)CC2)OC1=O", "note": "(stereo unspecified)", "survival": "inactive: 87%"}, {"compound": "NC1=NC(c2cc(F)cc(F)c2)n2c(nc3ccccc32)N1", "note": "(stereo unspecified)", "survival": "inactive: 70%"}, {"compound": "Cc1ccc(Cl)cc1NC(=O)CC1Sc2ccccc2NC1=O", "note": "(stereo unspecified)", "survival": "inactive: 89%"}, {"compound": "COc1ccc(C(C(=O)NCc2ccccc2)N(Cc2ccco2)C(=O)c2cnccn2)cc1", "note": "(stereo unspecified)", "survival": "inactive: 101%"}, {"compound": "Cc1ccc(CNC(=O)CCc2c(C)nc3c4c(C)cc(C)nc4nn3c2C)cc1", "survival": "inactive: 85%"}, {"compound": "NC(=O)CSc1oc(-c2cccs2)nc1S(=O)(=O)c1ccc(Br)cc1", "survival": "inactive: 152%"}, {"compound": "Cc1cccc(C(=O)Nc2ccc(C(=O)OCc3cc(=O)n4c(C)csc4n3)cc2)c1", "survival": "inactive: 121%"}, {"compound": "CCCCOc1cccc(C(=O)N(Cc2ccc(Br)o2)C2CCS(=O)(=O)C2)c1", "note": "(stereo unspecified)", "survival": "inactive: 72%"}, {"compound": "Cc1ccc(NC(=O)CCn2cnc3ccccc3c2=O)cc1C", "survival": "inactive: 100%"}, {"compound": "O=C(Nc1cccc(Cl)c1)C1CCN(S(=O)(=O)Cc2ccccc2)CC1", "survival": "inactive: 80%"}, {"compound": "O=C(c1cnc2c(c1)COc1ccccc1-2)c1ccccc1O", "survival": "active: 5%"}, {"compound": "Cn1nc(-c2ccccc2F)c2cc(C(=O)Nc3cc(F)ccc3F)sc21", "survival": "inactive: 94%"}, {"compound": "Cc1ccccc1Cn1cc(CCC(=O)NCc2cccc(Br)c2)c2ccccc21", "survival": "inactive: 116%"}, {"compound": "O=C(Cn1c(=O)c(C(F)(F)F)nc2ccccc21)Nc1ccc(Br)cc1F", "survival": "inactive: 66%"}, {"compound": "COc1ccc(S(=O)(=O)N2CCN(c3ccccc3)CC2)cc1-c1noc(C)n1", "survival": "inactive: 89%"}, {"compound": "COC(=O)c1ccc(NC(=O)N2CCN(c3nnc(C)c4c(C)n(-c5ccccc5)nc34)CC2)cc1", "survival": "inactive: 65%"}, {"compound": "CC(C)c1cnc2c(c1SCC(=O)c1ccccc1)c(=O)n(C)c(=O)n2C", "survival": "inactive: 66%"}, {"compound": "O=C(NCc1ccccc1)c1ccc2c(c1)N(Cc1ccccc1)C(=O)c1ccccc1S2(=O)=O", "survival": "inactive: 92%"}, {"compound": "COc1ccc(S(=O)(=O)NCC(c2ccco2)N2CCN(c3ccc(F)cc3)CC2)cc1", "note": "(stereo unspecified)", "survival": "inactive: 66%"}, {"compound": "CC(C)(C)NC(=O)CSc1nc(-c2ccc(F)cc2)cc(C(F)(F)F)n1", "survival": "inactive: 78%"}, {"compound": "COc1ccc(Cc2nc3ccc(C(=O)NCCc4ccc(OC)c(OC)c4)cc3o2)cc1", "survival": "inactive: 68%"}, {"compound": "Cc1cc(C)cc(NC(c2nnc(-c3cccc(F)c3)o2)c2ccc(F)cc2Cl)c1", "note": "(stereo unspecified)", "survival": "inactive: 37%"}, {"compound": "CCOC(=O)Cn1c(=O)n(C2CCCCC2)c2nc(-c3ccc(OC)cc3)nc(C(N)=O)c21", "survival": "inactive: 85%"}, {"compound": "CC(C)(C)n1cnc2cc(NS(=O)(=O)c3ccccc3)ccc21", "survival": "inactive: 112%"}, {"compound": "Cn1c(=O)n(C)c2cc(CNCc3ccccc3)ccc21", "survival": "inactive: 86%"}, {"compound": "Cc1cc(C)c(S(=O)(=O)Nc2cc(Cl)c3oc4c(c3c2)C(=O)CCC4)cc1C", "survival": "inactive: 97%"}, {"compound": "Cc1ccc(CNS(=O)(=O)c2cc(Br)cc3c2N(C(=O)C2CC2)CC3)cc1", "survival": "inactive: 66%"}, {"compound": "Cc1ccc(Cn2c(=O)n(Cc3ccccc3)c(=O)c3c(C)c(C)sc32)cc1", "survival": "inactive: 83%"}, {"compound": "Cc1ccc(CNC(=O)C(=O)NCC(c2ccco2)S(=O)(=O)c2ccc(C)cc2)cc1", "note": "(stereo unspecified)", "survival": "inactive: 80%"}, {"compound": "CCOc1ccc(C(=O)Nc2ccc(-c3nnc4n3CCCCC4)cc2)cc1OCC", "survival": "inactive: 73%"}, {"compound": "Cc1cccc2c(=O)cc(CSCC(=O)Nc3ccc(Cl)cc3)[nH]c12", "survival": "inactive: 143%"}, {"compound": "CCCCNC(=O)CN1C(=O)c2c(c3ccccc3n2C)C1c1ccc(OC)cc1", "note": "(stereo unspecified)", "survival": "inactive: 99%"}, {"compound": "CC(C)(C)C(=O)Nc1nc2nc(-c3ccccc3)cc(=O)n2[nH]1", "survival": "inactive: 83%"}, {"compound": "COc1ccc(Nc2nc(Nc3ccc(OC)cc3OC)nc(N3CCOCC3)n2)c(OC)c1", "survival": "inactive: 55%"}, {"compound": "Cc1ccc2oc(-c3cccc(NC(=O)c4ccc(N5CCC(C)CC5)c([N+](=O)[O-])c4)c3)nc2c1", "survival": "inactive: 136%"}, {"compound": "COc1cccc(/C=N/NC(=O)CSCc2ccccc2)c1O", "survival": "inactive: 108%"}, {"compound": "COc1ccc(C2CC(=O)c3cc(-c4nc(-c5cccc([N+](=O)[O-])c5)cs4)c(=O)n(-c4ccc(F)cc4)c3C2)cc1", "note": "(stereo unspecified)", "survival": "inactive: 76%"}, {"compound": "N/C(CN1CCCC1=O)=N\\O", "survival": "inactive: 114%"}, {"compound": "Cc1oc(-c2ccc(Cl)cc2)nc1CN1CCCC(C(=O)NCCc2ccccc2)C1", "note": "(stereo unspecified)", "survival": "inactive: 29%"}, {"compound": "CCc1cccc(C)c1NC(=O)c1cc(S(=O)(=O)N2CCC3(CC2)OCCO3)ccc1F", "survival": "inactive: 135%"}]}]}
